This note sets out measurements from article PMC11995724, “Antibiotic target discovery by integrated phenotypic and activity-based profiling of electrophilic fragments” (Cell chemical biology, 2025).

Out of some 3,200 compounds screened, about 110 (3.4%) showed an effect of 50% or more. The list shows a part of the results.

In this test the test system is T1, V. cholerae SAD30.
T1 construct: SAD30
On the set-up: species or system S. aureus MSSA476 (TSB) or V. cholerae SAD30 (LB); 384-well bacterial growth screen at 25 uM, OD600 relative to DMSO control. As to conditions: relative growth, OD600, LB; 25 µM; inhibitor.
In the case of `O=C(CCl)N1CCC(CCc2ccccc2)CC1` [6-G12, 2-chloro-1-[4-(2-phenylethyl)piperidin-1-yl]ethan-1-one], the “% of control remaining” value stood at 80.8418%.

In the case of `CC(=O)NC1(c2nc(C)cs2)CCN(C(=O)C(C)Cl)C1` (stereo not shown) [7-O06, N-[1-(2-chloropropanoyl)-3-(4-methyl-1,3-thiazol-2-yl)pyrrolidin-3-yl]acetamide], the “% of control remaining” value stood at 82.868%.

For the molecule `C=CC(=O)NCCc1ccnn1C` [2-O17, N-[2-(1-methyl-1H-pyrazol-5-yl)ethyl]prop-2-enamide], the “% of control remaining” value turned out to be 95.1365%.

In the case of `Nc1c(C(=O)CCl)c(=O)[nH]c(=O)n1C1CC1` [10-P06, 6-amino-5-(2-chloroacetyl)-1-cyclopropyl-1,2,3,4-tetrahydropyrimidine-2,4-dione], the “% of control remaining” value is given as 106.293%.

For the molecule `CC(Cl)C(=O)NCc1ccn(CC(F)F)n1` (stereo not shown) [7-I17, 2-chloro-N-{[1-(2,2-difluoroethyl)-1H-pyrazol-3-yl]methyl}propanamide], the “% of control remaining” value is 75.9954%.

For the molecule `N#CC(=Cc1cccc(O)c1)C(=O)Nc1ccc(SC(F)F)cc1` [9-C19, 2-cyano-N-{4-[(difluoromethyl)sulfanyl]phenyl}-3-(3-hydroxyphenyl)prop-2-enamide], the “% of control remaining” value worked out at 77.2944%.

With `N#CC(=Cc1ccccc1Cl)C(=O)Nc1ccc(Cl)cc1` [8-B11, 3-(2-chlorophenyl)-N-(4-chlorophenyl)-2-cyanoprop-2-enamide], the “% of control remaining” value was 81.6451%.

Turning to `CC(Cl)C(=O)Nc1cccnc1Cl` (stereo not shown) [6-C17, 2-chloro-N-(2-chloropyridin-3-yl)propanamide], the “% of control remaining” value came out at 88.1221%.

Consider `C=CC(=O)Nc1cnn(-c2ccccc2)c1C(F)F` [3-I03, N-[5-(difluoromethyl)-1-phenyl-1H-pyrazol-4-yl]prop-2-enamide], for which the “% of control remaining” value is listed as 110.969%.

Consider `COc1ccc(NC(=O)C(C#N)=CC=Cc2ccccc2)cc1Cl` [8-M18, N-(3-chloro-4-methoxyphenyl)-2-cyano-5-phenylpenta-2,4-dienamide], for which the “% of control remaining” value stood at 75.5269%.

For `O=C(CCl)Nc1nccc(Cl)n1` [6-C19, 2-chloro-N-(4-chloropyrimidin-2-yl)acetamide], the “% of control remaining” value was 88.7288%.

For `Cc1ccccc1NC(=O)C(C#N)=Cc1ccccc1Cl` [8-N05, 3-(2-chlorophenyl)-2-cyano-N-(2-methylphenyl)prop-2-enamide], the “% of control remaining” value amounted to 76.4786%.

Take `CCn1cc(CN(C)C(=O)C(C)Cl)nn1` (stereo not shown) [6-L22, 2-chloro-N-[(1-ethyl-1H-1,2,3-triazol-4-yl)methyl]-N-methylpropanamide]: the “% of control remaining” value is given as 97.0708%.

For `COCCn1c(N)c(C(=O)CCl)c(=O)[nH]c1=O` [10-N12, 6-amino-5-(2-chloroacetyl)-1-(2-methoxyethyl)-1,2,3,4-tetrahydropyrimidine-2,4-dione], the “% of control remaining” value stood at 98.344%.

In the case of `O=C(CCl)Nc1ccccc1S(=O)(=O)C(F)F` [4-B18, 2-chloro-N-(2-difluoromethanesulfonylphenyl)acetamide], the “% of control remaining” value is on record as 103.17%.

Take `C=CC(=O)Nc1ccc(OCCC)c(C)c1` [1-C20, N-(3-methyl-4-propoxyphenyl)prop-2-enamide]: the “% of control remaining” value amounted to 81.9133%.

Turning to `CC(C)NC(=O)C(C#N)=Cc1ccc(F)cc1` [9-I09, 2-cyano-3-(4-fluorophenyl)-N-(propan-2-yl)prop-2-enamide], the “% of control remaining” value came to 88.9871%.

Take `Cc1ccc(C=C(C#N)C(=O)Nc2ccc(N3CCOCC3)cc2)s1` [8-A06, 2-cyano-3-(5-methylthiophen-2-yl)-N-[4-(morpholin-4-yl)phenyl]prop-2-enamide]: the “% of control remaining” value came out at 91.7063%.

Regarding `C=CC(=O)N1CCC(c2nnc(C)o2)CC1` [3-N04, 1-[4-(5-methyl-1,3,4-oxadiazol-2-yl)piperidin-1-yl]prop-2-en-1-one], the “% of control remaining” value is reported as 103.558%.

`COC1CCN(c2ccc(F)cc2CN(C)C(=O)C(C)Cl)CC1` (stereo not shown) [7-I11, 2-chloro-N-{[5-fluoro-2-(4-methoxypiperidin-1-yl)phenyl]methyl}-N-methylpropanamide]: the “% of control remaining” value turned out to be 64.8934%.

In the case of `Cl.O=C(CCl)c1ccncc1F` [10-I09, 2-chloro-1-(3-fluoropyridin-4-yl)ethan-1-one hydrochloride], the “% of control remaining” value is reported as 0%.

As for `O=C1C=CC(=O)N1c1ccccc1F` [10-D17, 1-(2-fluorophenyl)-2,5-dihydro-1H-pyrrole-2,5-dione], the “% of control remaining” value is given as 26.1835%.

On to `Cc1cc(C(=O)CCl)c(C)n1C1CCS(=O)(=O)C1` (stereo not shown) [10-B12, 3-[3-(2-chloroacetyl)-2,5-dimethyl-1H-pyrrol-1-yl]-1lambda6-thiolane-1,1-dione], for which the “% of control remaining” value stood at 102.085%.

With `CC(C)CC(=O)Nc1ccc(C(=O)CCl)cc1` [10-N06, N-[4-(2-chloroacetyl)phenyl]-3-methylbutanamide], the “% of control remaining” value came to 76.8362%.

Take `COc1cccc(NC(=O)C(C#N)=Cc2ccc(C)cc2C)c1` [8-C16, 2-cyano-3-(2,4-dimethylphenyl)-N-(3-methoxyphenyl)prop-2-enamide]: the “% of control remaining” value amounted to 74.4392%.

Regarding `N#Cc1cccc2c1CC[C@H]2NC(=O)CCl` [7-D06, 2-chloro-N-[(1R)-4-cyano-2,3-dihydro-1H-inden-1-yl]acetamide], the “% of control remaining” value came to 88.9476%.

Consider `N#CC(=Cc1ccsc1)C(=O)Nc1nccs1` [9-C17, 2-cyano-N-(1,3-thiazol-2-yl)-3-(thiophen-3-yl)prop-2-enamide], for which the “% of control remaining” value amounted to 85.3161%.

`C=CC(=O)NCc1n[nH]c(=O)n1C1CC1` [3-N08, N-[(4-cyclopropyl-5-oxo-4,5-dihydro-1H-1,2,4-triazol-3-yl)methyl]prop-2-enamide]: the “% of control remaining” value is reported as 98.265%.

Take `C=CC(=O)NC1(C(N)=O)CCCC1C` (stereo not shown) [3-B09, 2-methyl-1-(prop-2-enamido)cyclopentane-1-carboxamide]: the “% of control remaining” value was 108.146%.

As to `CC(=O)N(Cc1ncc(C(C)C)o1)C1CCN(C(=O)C(C)Cl)C1` (stereo not shown) [6-J07, N-[1-(2-chloropropanoyl)pyrrolidin-3-yl]-N-{[5-(propan-2-yl)-1,3-oxazol-2-yl]methyl}acetamide], the “% of control remaining” value amounted to 90.0938%.

As to `COc1ccc(C2=NN(C(=O)CCl)C(c3cccc(C)c3)C2)cc1` (stereo not shown) [4-G20, 2-chloro-1-[3-(4-methoxyphenyl)-5-(3-methylphenyl)-4,5-dihydro-1H-pyrazol-1-yl]ethan-1-one], the “% of control remaining” value amounted to 99.3746%.

As for `CCN(Cc1ccc2c(c1)OCO2)C(=O)CCl` [5-L07, N-[(1,3-dioxaindan-5-yl)methyl]-2-chloro-N-ethylacetamide], the “% of control remaining” value came out at 98.8547%.

`CC(Cl)C(=O)Nc1ccc(F)c(F)c1` (stereo not shown) [6-P08, 2-chloro-N-(3,4-difluorophenyl)propanamide]: the “% of control remaining” value was 93.8857%.

With `N#CC(=Cc1cccc(Cl)c1)C(=O)Nc1ccccc1C(F)(F)F` [8-J13, 3-(3-chlorophenyl)-2-cyano-N-[2-(trifluoromethyl)phenyl]prop-2-enamide], the “% of control remaining” value is on record as 71.448%.

With `CC(Cl)C(=O)N1CC(OCc2cccc3ccccc23)C1` (stereo not shown) [7-I03, 2-chloro-1-{3-[(naphthalen-1-yl)methoxy]azetidin-1-yl}propan-1-one], the “% of control remaining” value is on record as 85.5113%.

Take `C=CC(=O)N1CCC(C(=O)N(C)CCn2cccn2)CC1` [2-J12, N-methyl-1-(prop-2-enoyl)-N-[2-(1H-pyrazol-1-yl)ethyl]piperidine-4-carboxamide]: the “% of control remaining” value is 94.519%.

As to `CC(Cl)C(=O)NC(c1cc(Cl)ccc1Cl)C1CCOC1` (stereo not shown) [7-K21, 2-chloro-N-[(2,5-dichlorophenyl)(oxolan-3-yl)methyl]propanamide], the “% of control remaining” value came out at 73.7486%.

On to `CC(Cl)C(=O)NC1CCN(c2ccccc2C(F)(F)F)C1` (stereo not shown) [7-C17, 2-chloro-N-{1-[2-(trifluoromethyl)phenyl]pyrrolidin-3-yl}propanamide], for which the “% of control remaining” value was found to be 55.6418%.

Turning to `Cc1ccc(S(=O)(=O)N2CCCCC2)cc1NC(=O)CCl` [4-L06, 2-chloro-N-[2-methyl-5-(piperidine-1-sulfonyl)phenyl]acetamide], the “% of control remaining” value is given as 100.927%.

Take `C=CC(=O)N1CCC(F)CC1` [1-D14, 1-(4-fluoropiperidin-1-yl)prop-2-en-1-one]: the “% of control remaining” value was 79.2444%.

For `Cc1ccc(C=C(C#N)C(=O)Nc2ccc(C(=O)O)cc2)o1` [8-C14, 4-[2-cyano-3-(5-methylfuran-2-yl)prop-2-enamido]benzoic acid], the “% of control remaining” value stood at 75.119%.

Take `CC(Cl)C(=O)NCC1(C2CC2)CCC1` (stereo not shown) [7-A06, 2-chloro-N-[(1-cyclopropylcyclobutyl)methyl]propanamide]: the “% of control remaining” value is on record as 82.4715%.

Regarding `CC(Cl)C(=O)N1c2ccccc2NC(=O)C1(C)C` (stereo not shown) [4-C08, 4-(2-chloropropanoyl)-3,3-dimethyl-1,2,3,4-tetrahydroquinoxalin-2-one], the “% of control remaining” value is reported as 91.7835%.

For `O=C(CCl)Nc1oncc1-c1ccccc1` [6-I20, 2-chloro-N-(4-phenyl-1,2-oxazol-5-yl)acetamide], the “% of control remaining” value is on record as 95.5541%.

As to `CC(Cl)C(=O)NC(C)c1ccc2c(c1)CCCC2` (stereo not shown) [6-A07, 2-chloro-N-[1-(5,6,7,8-tetrahydronaphthalen-2-yl)ethyl]propanamide], the “% of control remaining” value turned out to be 78.2633%.

On to `Cn1cc(S(=O)(=O)N2CCOCC2)cc1C(=O)NC(=O)CCl` [4-P20, N-(2-chloroacetyl)-1-methyl-4-(morpholine-4-sulfonyl)-1H-pyrrole-2-carboxamide], for which the “% of control remaining” value is listed as 108.001%.
